For 20 molecules, binding signal results are on record in publication PMC9911399, “Two distinct binding modes provide the RNA-binding protein RbFox with extraordinary sequence specificity”.

Sequences and labels used below:
T1: RBFOX1 RRM (Homo sapiens, UniProt Q9NWB1 109-208)
T1 sequence: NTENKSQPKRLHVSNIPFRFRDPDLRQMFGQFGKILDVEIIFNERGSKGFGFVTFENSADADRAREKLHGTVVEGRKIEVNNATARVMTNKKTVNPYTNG

B1: UCCGUAA (DNA:RNA)
RNA: GGGAGACCGGAAUUCAGAUUGUCCUCCGUAAUUAAAUCCCGUCGUAGCCACCA
DNA 1: CAATCTGAATTCCGGTCTCCC
DNA 2: TGGTGGCTACGACGGGATT
B2: UUUUAUA (DNA:RNA)
RNA: B1 RNA with C26U, C27U, G28U, U29A, A30U
DNA 1: CAATCTGAATTCCGGTCTCCC
DNA 2: TGGTGGCTACGACGGGATT
B3: AAAUACU (DNA:RNA)
RNA: GGGAGACCGGAAUUCAGAUUGUCCAAAUACUUUAAAUCCCGUCGUAGCCACCA
DNA 1: CAATCTGAATTCCGGTCTCCC
DNA 2: TGGTGGCTACGACGGGATT
B4: CACCGGG (DNA:RNA)
RNA: B3 RNA with A25C, A27C, U28C, A29G, C30G, U31G
DNA 1: CAATCTGAATTCCGGTCTCCC
DNA 2: TGGTGGCTACGACGGGATT
B5: AGGCUGA (DNA:RNA)
RNA: B1 RNA with U25A, C26G, C27G, G28C, A30G
DNA 1: CAATCTGAATTCCGGTCTCCC
DNA 2: TGGTGGCTACGACGGGATT
B6: CUGCCUU (DNA:RNA)
RNA: B3 RNA with A25C, A26U, A27G, U28C, A29C, C30U
DNA 1: CAATCTGAATTCCGGTCTCCC
DNA 2: TGGTGGCTACGACGGGATT
B7: AGGAGAA (DNA:RNA)
RNA: B1 RNA with U25A, C26G, C27G, G28A, U29G
DNA 1: CAATCTGAATTCCGGTCTCCC
DNA 2: TGGTGGCTACGACGGGATT
B8: UUAAGCG (DNA:RNA)
RNA: B3 RNA with A25U, A26U, U28A, A29G, U31G
DNA 1: CAATCTGAATTCCGGTCTCCC
DNA 2: TGGTGGCTACGACGGGATT
B9: GCAGUGA (DNA:RNA)
RNA: B1 RNA with U25G, C27A, A30G
DNA 1: CAATCTGAATTCCGGTCTCCC
DNA 2: TGGTGGCTACGACGGGATT
B10: GGCCGGU (DNA:RNA)
RNA: B3 RNA with A25G, A26G, A27C, U28C, A29G, C30G
DNA 1: CAATCTGAATTCCGGTCTCCC
DNA 2: TGGTGGCTACGACGGGATT
B11: UAGGGGA (DNA:RNA)
RNA: B1 RNA with C26A, C27G, U29G, A30G
DNA 1: CAATCTGAATTCCGGTCTCCC
DNA 2: TGGTGGCTACGACGGGATT
B12: ACAGCCG (DNA:RNA)
RNA: B3 RNA with A26C, U28G, A29C, U31G
DNA 1: CAATCTGAATTCCGGTCTCCC
DNA 2: TGGTGGCTACGACGGGATT
B13: GUGCUAG (DNA:RNA)
RNA: B1 RNA with U25G, C26U, C27G, G28C, A31G
DNA 1: CAATCTGAATTCCGGTCTCCC
DNA 2: TGGTGGCTACGACGGGATT
B14: GUCGGUC (DNA:RNA)
RNA: B1 RNA with U25G, C26U, U29G, A30U, A31C
DNA 1: CAATCTGAATTCCGGTCTCCC
DNA 2: TGGTGGCTACGACGGGATT
B15: ACGGUAU (DNA:RNA)
RNA: B1 RNA with U25A, C27G, A31U
DNA 1: CAATCTGAATTCCGGTCTCCC
DNA 2: TGGTGGCTACGACGGGATT
B16: UGCUACG (DNA:RNA)
RNA: B3 RNA with A25U, A26G, A27C, U31G
DNA 1: CAATCTGAATTCCGGTCTCCC
DNA 2: TGGTGGCTACGACGGGATT
B17: GCUUAGA (DNA:RNA)
RNA: B3 RNA with A25G, A26C, A27U, C30G, U31A
DNA 1: CAATCTGAATTCCGGTCTCCC
DNA 2: TGGTGGCTACGACGGGATT
B18: GGGAACG (DNA:RNA)
RNA: B3 RNA with A25G, A26G, A27G, U28A, U31G
DNA 1: CAATCTGAATTCCGGTCTCCC
DNA 2: TGGTGGCTACGACGGGATT
B19: ACCUACC (DNA:RNA)
RNA: B3 RNA with A26C, A27C, U31C
DNA 1: CAATCTGAATTCCGGTCTCCC
DNA 2: TGGTGGCTACGACGGGATT
B20: ACGACGU (DNA:RNA)
RNA: B3 RNA with A26C, A27G, U28A, A29C, C30G
DNA 1: CAATCTGAATTCCGGTCTCCC
DNA 2: TGGTGGCTACGACGGGATT

Changes are numbered by the printed parent chain; changes in the protein carry UniProt numbers. Some of the results follow.

The assay concerns the target T1, RBFOX1 RRM. Description: EMSA; HiTS-Eq, 1 nM pool, 10 min; buffer printed only for the single-RNA assays: 10 mM Tris pH 7.5, 150 mM NaCl, 3.4 mM EDTA, 0.001% NP-40, 30 C. The following applies: tags: His6 N-terminal (pET28a); label: 5' 32P. The method in brief: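 Purified RbFox RRM, wild type or mutant, was incubated for 10 min in 50 µL with 1 nM of a 5′-radiolabelled RNA pool carrying 7 randomized nucleotides, whose flanks were annealed to DNA oligonucleotides, over a series of increasing protein concentrations. Unbound RNA was resolved on 8% native PAGE, cut out, reverse-transcribed, barcoded by PCR and sequenced on an Illumina HiSeq 2500. Relative association constants were derived from changes in read counts for each RNA species versus the control reaction and normalised to the cognate motif.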
As to B1, the binding signal is 0.00371 KA relative to UGCAUGU.

B2: the binding signal is 0.0021 KA relative to UGCAUGU.

Regarding B3, the binding signal was 0.00265 KA relative to UGCAUGU.

With B4, the binding signal is 0.00514 KA relative to UGCAUGU.

Turning to B5, the binding signal was 0.0153 KA relative to UGCAUGU.

As to B6, the binding signal is 0.0102 KA relative to UGCAUGU.

As to B7, the binding signal was 0.0164 KA relative to UGCAUGU.

Take B8: the binding signal was 0.0153 KA relative to UGCAUGU.

Consider B9, for which the binding signal was 0.0116 KA relative to UGCAUGU.

On to B10, for which the binding signal was 0.0275 KA relative to UGCAUGU.

For the molecule B11, the binding signal was 0.00576 KA relative to UGCAUGU.

As to B12, the binding signal was 0.00101 KA relative to UGCAUGU.

As to B13, the binding signal was 0.0307 KA relative to UGCAUGU.

For B14, the binding signal is 0.0118 KA relative to UGCAUGU.

On to B15, for which the binding signal is 0.0105 KA relative to UGCAUGU.

In the case of B16, the binding signal is 0.0218 KA relative to UGCAUGU.

B17: the binding signal was 0.0147 KA relative to UGCAUGU.

For the molecule B18, the binding signal is 0.0367 KA relative to UGCAUGU.

As for B19, the binding signal is 0.000543 KA relative to UGCAUGU.

Consider B20, for which the binding signal is 0.00603 KA relative to UGCAUGU.
